Data: the BET-seq Pho4 binding data (Le et al. 2018)
Some of the results follow. Values were computed here from the reads of four pooled replicates and scatter widely.

target: T1, Pho4 (S. cerevisiae) (UniProt P07270); assay: relative binding free energy (BET-seq); higher = weaker binding; details: reference: library average
T1 sequence: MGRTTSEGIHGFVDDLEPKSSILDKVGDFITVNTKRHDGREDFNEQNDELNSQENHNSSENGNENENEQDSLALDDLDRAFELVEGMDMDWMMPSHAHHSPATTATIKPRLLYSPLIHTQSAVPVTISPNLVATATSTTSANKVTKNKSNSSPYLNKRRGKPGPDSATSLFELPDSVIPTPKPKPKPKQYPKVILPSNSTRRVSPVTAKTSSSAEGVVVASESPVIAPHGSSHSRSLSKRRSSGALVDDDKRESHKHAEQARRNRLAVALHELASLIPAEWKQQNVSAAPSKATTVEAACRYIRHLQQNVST

Sequence	relative binding free energy
GTGCGCACGTGGGTCT	-0.26 kcal/mol
AGGCTCACGTGGAGGT	0.17 kcal/mol
TTGATCACGTGGCAAG	0.07 kcal/mol
ATTGGCACGTGGGTTT	-0.23 kcal/mol
ATTTTCACGTGATGGA	0.26 kcal/mol
CGTTGCACGTGTGGAA	0.02 kcal/mol
TTGTTCACGTGGCAGG	0.31 kcal/mol
CTGTGCACGTGTAGGT	0.05 kcal/mol
TTAGTCACGTGAGTTG	0.31 kcal/mol
TATATCACGTGCAGTG	-0.03 kcal/mol
GCGGGCACGTGGGCTG	-0.25 kcal/mol
GGGCACACGTGTTGGA	0.08 kcal/mol
GGTATCACGTGGGACG	0.06 kcal/mol
GATCGCACGTGTTGAG	-0.01 kcal/mol
CTTTGCACGTGGAGTC	0.06 kcal/mol
TGTAACACGTGGTTGC	-0.08 kcal/mol
TGGCGCACGTGGTACG	-0.19 kcal/mol
AGGCGCACGTGGGAAT	-0.15 kcal/mol
GTGTACACGTGTGGAC	0.14 kcal/mol

Sequence	relative binding free energy
CTTCTCACGTGTTTGT	0.15 kcal/mol
TTGCGCACGTGGGGTT	-0.32 kcal/mol
GTGTTCACGTGGCGAG	0.32 kcal/mol
ATTGACACGTGCTTTG	-0.06 kcal/mol
TTTCGCACGTGGCTTA	-0.05 kcal/mol
GGGTTCACGTGGTCTT	0.22 kcal/mol
AATACCACGTGTTTGT	-0.1 kcal/mol
TTAACCACGTGTTTTT	-0.08 kcal/mol
TAGAACACGTGATTTT	0.13 kcal/mol
GTATTCACGTGTCTGT	0.12 kcal/mol
TTTGCCACGTGAGAGG	0.13 kcal/mol
AATTTCACGTGTGGTT	0.27 kcal/mol
GGGGGCACGTGGTTAT	-0.07 kcal/mol
GGAGTCACGTGGCTAT	0.03 kcal/mol
TAATTCACGTGGGGCT	0.18 kcal/mol
TCAGTCACGTGGGGCT	-0.05 kcal/mol
GTTGTCACGTGATATC	0.32 kcal/mol
AAAGGCACGTGGTGGT	-0.17 kcal/mol
GGTGGCACGTGTAGTT	-0.1 kcal/mol

Sequence	relative binding free energy
GTCGGCACGTGGGGGT	-0.17 kcal/mol
GTAACCACGTGGGGTG	-0.16 kcal/mol
AGAGTCACGTGGTCGT	0.05 kcal/mol
GGGTGCACGTGTGGGA	0.04 kcal/mol
ACGGTCACGTGATGTG	0.19 kcal/mol
GTATGCACGTGTGTGA	-0.02 kcal/mol
TTTCTCACGTGAGAGG	0.5 kcal/mol
GATTGCACGTGGGAGG	-0.05 kcal/mol
TTCTGCACGTGGGCTG	-0.16 kcal/mol
GTGCGCACGTGATTTT	0.22 kcal/mol
CTTGGCACGTGGGTGC	-0.28 kcal/mol
GTAGCCACGTGGGGCT	-0.23 kcal/mol
TGAGGCACGTGGTGAG	-0.18 kcal/mol
ATACTCACGTGGGTTG	-0.1 kcal/mol
TATTTCACGTGGAGAC	0.36 kcal/mol
TGATACACGTGTGTGA	0.02 kcal/mol
TCTGTCACGTGTGTCG	0.13 kcal/mol
TTTGTCACGTGCGGTG	0.03 kcal/mol
GGATTCACGTGGGGTA	0.18 kcal/mol
